Data taken from publication PMC10668032.
The other results are listed elsewhere or left out. At the low end of the ranking the order means little.

These sequences were tested against SIX1 homeodomain (reference allele) (UniProt Q15475) (assay: universal protein binding microarray). Settings: Universal all-10-mer PBM (8x60K, AMADID 030236), 300 nM GST-tagged protein, Alexa Fluor 488 anti-GST; buffer, salt, pH and temperature not stated; high values mean tight binding; most listed sequences are background and not binding sites; double strand, one strand shown.

| Sequence | binding signal [E-score] |
| --- | --- |
| ACTTATAC | 0.0258 |
| GTCGGAAC | -0.074 |
| CCCAATGC | -0.159 |
| AACCGTGG | -0.195 |
| CGTCAAAG | -0.299 |
| ACGTTTAT | -0.127 |
| ATGTATTG | 0.209 |
| AACGCGTT | -0.105 |
| AGCTATGA | 0.0341 |
| ATGCGGAA | -0.00985 |
| ACCTGAAG | -0.107 |
| ACAGTATA | 0.287 |
| ACGGATCA | 0.43 |
| AATAGGTA | 0.0805 |
| TCTCGCCA | -0.131 |
| AACTAGAT | 0.23 |
| GGTCTCGA | 0.124 |
| CAACATTC | -0.257 |
| CCTGTTAC | -0.105 |
| CCTGTCAC | -0.00522 |
| AATCCCAG | 0.133 |
| CCTAAAAG | -0.113 |
| TACGTTGA | 0.0451 |
| GATTCAGA | 0.034 |
| CCCAGATC | 0.38 |

| Sequence | binding signal [E-score] |
| --- | --- |
| GATCGAAC | -0.00754 |
| CAACAGAC | -0.189 |
| AACCGACC | 0.0696 |
| CATTAACG | -0.131 |
| GTTCAGAA | -0.0901 |
| TATACGAA | 0.164 |
| ACGCGATC | 0.275 |
| AATTGTCT | -0.0686 |
| CCTCTACC | 0.099 |
| TGTCGTAA | -0.0252 |
| GCTAACAA | -0.233 |
| CGGATAAA | 0.275 |
| ATGTCAGC | -0.194 |
| GTGACGGA | -0.12 |
| GAGCGGCC | -0.279 |
| AATCGGAA | -0.133 |
| AGCCACGG | 0.064 |
| CCTTTGAA | -0.186 |
| CTTGACAA | -0.149 |
| GACATGGC | -0.072 |
| CTATATTA | 0.152 |
| ATTTCTAG | -0.185 |
| TCTCTTCA | 0.0774 |
| CTCTGTTA | -0.119 |
| GCACGAGA | 0.128 |

| Sequence | binding signal [E-score] |
| --- | --- |
| AAGGGAAA | -0.237 |
| ATCTACCC | 0.34 |
| TTAATTAA | -0.0826 |
| CGGGTCCA | -0.13 |
| AGACCTGA | -0.0484 |
| GATTGTCA | -0.0205 |
| GGACAGGA | -0.207 |
| TCTGAGAA | 0.0493 |
| GGTGTCCA | 0.314 |
| CCTAAAGC | -0.0535 |
| ATCAATCC | 0.335 |
| CTTACGTA | 0.00475 |
| CAGAGTCG | -0.0866 |
| GTCATACA | 0.0735 |
| CGTGTACC | 0.062 |
| ACGACGAA | -0.009 |
| TAACACTA | 0.133 |
| GGGGAGCA | -0.213 |
| GCGCAAAC | -0.178 |
| AGCAAGAC | -0.142 |
| CGGGAACC | 0.00364 |
| GGCGTTGA | -0.00827 |
| ATATGCCC | 0.339 |
| CATCAATC | 0.0012 |
| CTCCAGCA | 0.0209 |

| Sequence | binding signal [E-score] |
| --- | --- |
| AACCTTGG | -0.0938 |
| ATCGTTAC | 0.102 |
| ATTGTTGC | -0.147 |
| AGTACTAC | -0.103 |
| AGCCCGAG | -0.108 |
| GGTCTGAA | -0.068 |
| AAAAGGAG | -0.218 |
| ATACTATA | 0.371 |
| GCAGCGTA | -0.194 |
| ACTGGCAG | -0.162 |
| ACATAACT | -0.0943 |
| AGCTGTCA | -0.104 |
| GGACCAAA | -0.161 |
| AAGTTGCG | -0.165 |
| AAAAGGGT | -0.0735 |
| ACGGAGGA | 0.0202 |
| CAGCAATA | 0.125 |
| ACACTGTC | -0.102 |
| ATGATCAC | 0.309 |
| CGCGAGTA | 0.132 |
| ACCAGAAT | 0.042 |
| GCTACACC | 0.136 |
| GGCTCGCA | 0.0276 |
| CGTTTCTC | -0.127 |
| GTCTCAAA | 0.0631 |

| Sequence | binding signal [E-score] |
| --- | --- |
| ACAGATGA | -0.0369 |
| CGTATCAA | 0.466 |
| TCTAAACA | -0.104 |
| AGTAGCAA | -0.0902 |
| CGTCGAGC | -0.115 |
| CAGGAGAG | 0.0555 |
| AAACTAAG | -0.06 |
| GTGGCATA | 0.101 |
| GGTATGGA | 0.252 |
| ATCCTTCG | 0.228 |
| CAAATATA | 0.121 |
| AGCATGGG | 0.12 |
| CAGAGGAG | -0.00123 |
| AATGGGAT | 0.213 |
| CGCTAGAC | -0.119 |
| AAGCCCAC | -0.139 |
| ACCTACGT | 0.0104 |
| TCGCCCCA | -0.0876 |
| CAATCCCC | 0.193 |
| ACCACCAC | 0.0406 |
| GGATTTAC | 0.0271 |
| AAGGCTAG | -0.0888 |
| CCATCCAC | 0.0736 |
| AACATATT | 0.0302 |
| AAGCACAC | -0.289 |

| Sequence | binding signal [E-score] |
| --- | --- |
| AGAGGACG | -0.0355 |
| ATTTAGCC | 0.0398 |
| GGAGAAAA | -0.274 |
| CTAACCCA | -0.186 |
| CCTGGTTA | -0.226 |
| ATTCAAAT | -0.0286 |
| AAAGTGGG | -0.131 |
| ATGATCGA | 0.173 |
| ACAATCGG | 0.0171 |
| CTCCGCTC | -0.0857 |
| ATTACATC | 0.248 |
| GGGGCAAC | -0.311 |
| ACATACCC | 0.194 |
| GACCCTGA | -0.00933 |
| ATGGGCAC | -0.0748 |
| AGTTATAT | 0.133 |
| GAGCACAC | -0.0523 |
| CGGCGGGA | -0.101 |
| CGGCCCAA | -0.064 |
| AACGGGGT | -0.0762 |
| TAGAAACA | -0.159 |
| CTCCGCGA | -0.114 |
| TGTCGCAA | -0.134 |
| ATGGATGA | 0.195 |
| ATAGTCTA | 0.162 |

| Sequence | binding signal [E-score] |
| --- | --- |
| GGGCCGAA | -0.324 |
| CGACAATA | -0.0135 |
| CTCCGACA | -0.0555 |
| GACAAACA | -0.28 |
| CCATAGAA | -0.0677 |
| CAAAAGCA | -0.169 |
| CACAACCG | -0.0804 |
| CGTAGAAC | -0.0371 |
| CGTTCAGA | -0.231 |
| ATCGGATG | 0.252 |
| ATCCCACC | 0.289 |
| ATACTGTC | 0.188 |
| CCGACCGA | -0.0975 |
| CTCGTCAA | -0.218 |
| GGGACCCC | -0.129 |
| ACTTTCCT | -0.159 |
| CACGACTC | -0.0214 |
| CGTGCACG | -0.00126 |
| CTTTCCGC | -0.337 |
| ACAATGAA | -0.109 |
| ACAATTCG | -0.0338 |
| ATGCCTCG | -0.043 |
